{"source": "paper PMC6919601", "about": "“Identification of Plasmodium dipeptidyl aminopeptidase allosteric inhibitors by high throughput screening” (PLoS ONE, 2019)", "note": "The campaign covered roughly 110,000 compounds. About 230 (0.21%) showed an effect of 50% or more. This is one part of the list.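 Also: 30 min substrate incubation versus DMSO and 10 µM JCP410 controls.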", "data": [{"biological_target": "DPAP1 (Plasmodium falciparum, UniProt Q8IIJ9)", "sequence (Q8IIJ9 whole entry, looked up)": "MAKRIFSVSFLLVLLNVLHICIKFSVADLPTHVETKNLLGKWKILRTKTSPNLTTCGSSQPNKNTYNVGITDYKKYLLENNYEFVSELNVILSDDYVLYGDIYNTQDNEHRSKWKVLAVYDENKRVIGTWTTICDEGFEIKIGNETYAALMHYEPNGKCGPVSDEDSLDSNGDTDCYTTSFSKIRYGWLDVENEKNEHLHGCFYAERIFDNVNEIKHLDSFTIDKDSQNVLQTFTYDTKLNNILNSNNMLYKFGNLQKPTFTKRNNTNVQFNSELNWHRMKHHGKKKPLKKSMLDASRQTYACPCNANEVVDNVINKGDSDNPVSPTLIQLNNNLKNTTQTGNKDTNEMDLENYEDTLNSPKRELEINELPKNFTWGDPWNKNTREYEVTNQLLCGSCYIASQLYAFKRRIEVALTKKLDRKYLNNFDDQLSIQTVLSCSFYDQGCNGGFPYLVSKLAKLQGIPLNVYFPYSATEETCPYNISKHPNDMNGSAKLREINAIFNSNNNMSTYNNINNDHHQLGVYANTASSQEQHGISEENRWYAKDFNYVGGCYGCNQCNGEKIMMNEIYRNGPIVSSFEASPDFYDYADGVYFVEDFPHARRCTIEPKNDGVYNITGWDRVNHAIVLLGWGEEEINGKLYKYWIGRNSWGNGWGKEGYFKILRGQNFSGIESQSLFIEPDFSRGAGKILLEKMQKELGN", "assay": "primary screen, percent inhibition; read by cleavage of a fluorogenic dipeptide substrate; higher = more effect of the substance", "design": "species or system P. falciparum D10 trophozoite lysates; single well", "units": {"% Inhibition @ 10 uM": "%"}, "values": [{"smiles": "O=C(c1cc2nc(-c3cccs3)cc(C(F)(F)F)n2n1)N1CCN(c2ccccc2)CC1", "% Inhibition @ 10 uM": -5.28}, {"smiles": "CN1CCC(C2(O)c3ccccc3CCc3ccccc32)CC1", "% Inhibition @ 10 uM": -2.79}, {"smiles": "Cc1ccc(C(=O)Nc2ccc(C)c(Cl)c2)o1", "% Inhibition @ 10 uM": 5.69}, {"smiles": "CC1CCN(CCCNC(=O)C2CCCN(S(C)(=O)=O)C2)CC1", "note": "(stereo not shown)", "% Inhibition @ 10 uM": 0.514}, {"smiles": "O=c1nc2s/c(=C/c3cccs3)c(=O)n2nc1Cc1ccc(F)cc1", "% Inhibition @ 10 uM": 1.23}, {"smiles": "COc1ccc(C(=O)CSc2ncnc3sc(C)c(C)c23)cc1", "% Inhibition @ 10 uM": -1.93}, {"smiles": "O=C(O)c1ccc(NC(=O)c2ccc(C(F)(F)F)cc2)cc1", "% Inhibition @ 10 uM": -3.04}, {"smiles": "CC(=O)/N=C1\\SC2CS(=O)(=O)CC2N1Cc1ccccc1Cl", "note": "(stereo not shown)", "% Inhibition @ 10 uM": 3.81}, {"smiles": "CC(C)(C)c1[nH]nc2c1C(c1ccc(Br)cc1)C(C#N)=C(N)O2", "note": "(stereo not shown)", "% Inhibition @ 10 uM": 2.69}, {"smiles": "COc1ccc(/C=C/c2sc(C)c(-c3ccccc3)[n+]2CCCS(=O)(=O)O)c(OC)c1", "% Inhibition @ 10 uM": 0.413}, {"smiles": "Cc1cc(C)c(S(N)(=O)=O)cc1S(N)(=O)=O", "% Inhibition @ 10 uM": -3.55}, {"smiles": "FC(F)(F)c1cccc(CN2CCN(c3ccc(Cl)cc3)CC2)c1", "% Inhibition @ 10 uM": 1.63}, {"smiles": "O=C(NCCc1ccccc1)c1nc(Cn2c(C(F)(F)F)nc3ccccc32)no1", "% Inhibition @ 10 uM": -1.85}, {"smiles": "CCOC(=O)c1c(NC(=O)CN2CCCC2)sc(C(C)=O)c1C", "% Inhibition @ 10 uM": 1.84}, {"smiles": "CCCCNS(=O)(=O)c1ccc(NC(=O)Cc2ccc(C)cc2)cc1", "% Inhibition @ 10 uM": -4.71}, {"smiles": "Cc1cc(C)n2nc(CCCCc3nc4nc(C)cc(C)n4n3)nc2n1", "% Inhibition @ 10 uM": -2.37}, {"smiles": "Cc1cc2c(cc1/C=C1\\SC(Nc3ccccc3F)=NC1=O)OCO2", "% Inhibition @ 10 uM": 2.95}, {"smiles": "CC(=O)N1N=C(c2ccccc2)CC1c1ccc(C)cc1", "note": "(stereo not shown)", "% Inhibition @ 10 uM": 0.528}, {"smiles": "CC(C)C[C@H](NC(=O)c1ccc2cc[nH]c2c1)C(=O)NCC#N", "% Inhibition @ 10 uM": 5.05}, {"smiles": "Cc1cc(NCc2ccco2)nc2ccccc12", "% Inhibition @ 10 uM": -0.233}, {"smiles": "CCCNC(=O)Cn1c(=O)cc(C)c2c(C)nn(-c3cccc(Cl)c3C)c21", "% Inhibition @ 10 uM": 2.65}, {"smiles": "CCCCn1c(=N)n(CCCOc2ccccc2)c2ccccc21", "% Inhibition @ 10 uM": -2.21}, {"smiles": "CC(C)(C)Oc1ncc(-c2ccncc2)c(OC(C)(C)C)n1", "% Inhibition @ 10 uM": -0.46}, {"smiles": "O=[N+]([O-])c1ccc(-c2cn3ccccc3n2)cc1", "% Inhibition @ 10 uM": 2.76}, {"smiles": "Cc1nc(CN2CCN(C(=O)c3ccc(Br)cc3)CC2)cs1", "% Inhibition @ 10 uM": -7.5}, {"smiles": "N#CCNC(=O)C1(NC(=O)c2cccc(Br)c2)CCCCC1", "% Inhibition @ 10 uM": 4.45}, {"smiles": "CC1CN(C(=O)C2CCCC2)C(C)CN1C(=O)C1CCCC1", "note": "(stereo not shown)", "% Inhibition @ 10 uM": 0.161}, {"smiles": "CC1(C)Cc2c(sc(NC(=O)c3ccccc3Cl)c2C(=O)O)CO1", "% Inhibition @ 10 uM": -6.69}]}]}
